Results from PubChem BioAssay AID588855 (National Center for Advancing Translational Sciences (NCATS), 2011).
Among all 410,000 compounds or so, about 5,000 (1.2%) were called active. Inconclusive means that the source gave no clear call. Such entries were picked first, then a sample of the others. Calls follow the shape of the dose curve; as a rule, active = well fitted inhibition curve with a large enough effect; inconclusive = small, poorly fitted or top-dose-only effect; inactive = no such curve, though single readings can be large or run the other way. Where the call is inconclusive, the potency comes from a doubtful curve fit.

experiment: qHTS for Inhibitors of TGF-b; conditions: HepG2 CAGA-GFP TGF-b/SMAD3 reporter, GFP fluorescence, 18 h, TGF-beta stimulated, 500 pg/mL final; series mostly up to 46.1 µM; activity, negative = inhibition: at the top concentration; also: nearly all actives have a fitted effect of over 65% in size
Excerpt: TGF-b is a main component in the TGF-b signaling pathway which plays diverse roles in cellular and development pathways. TGF-b is the mediated by the transcription factors Smads. Although the Smad-dependent pathway is the primary canonical TGF-b signaling node, TGF-b1 can also activate alternative signaling pathways, including those involving MAPK (ERK, JNK and p38). This interaction may mediate or enhance Smad-dependent responses, or can exert Smad-independent effects. The complexity of this signaling cascade allows the TGF-b superfamily to perform unique, overlapping or redundant functions. We believe that targeting the TGF-beta pathway at the Smad-transcription factor level may eliminate the consequences of disrupting the entire pathway and offer specificity without affecting other signaling pathways. Smad3 is the primary transducer of TGF-b's signals and Smad3 regulates many functions attributed to TGF-b signaling. We hypothesize that Smad3 inhibitors will selectively eliminate Smad3-specific TGF-beta signals without undesired off-target effects. We aim to identify Smad3-small molecule antagonists using a quantitative high throughput screening (qHTS) approach.
A high-throughput assay was developed to screen the NIH Molecular Libraries Small Molecule Repository (MLSMR). This is a cell based assay, where TGF-b is tagged with GFP. A counterscreen is run that looks at cytotoxicity (please see summary AID).
MH087449NIH Chemical Genomics Center [NCGC]
NIH Molecular Libraries Probe Centers Network [MLPCN]
Assay Submitter (PI): Sushil Rane, National Institute of […]
Suspensions of trypsinized HEPG2 CAGA-GFP cells were dispensed into white, tissue culture-treated, solid 1536-well plates at 5uL/well (1000 cells/well final concentration) in DMEM medium supplemented with 1% FBS. Plates were incubated at 37 degrees C for 2 hours, after which 23 nL of compounds or DMSO were delivered to each well using a pin tool. One uL of recombinant TGF-beta in DMEM (1% FBS) was then dispensed (500 pg/mL final concentration), and plates were incubated at 37 degrees C for 18 hours. The plates were measured on an Acumen eX3 Explorer plate reader for GFP fluorescence (ex488/em500-530). GFP values were calculated by determining the mean GFP fluorescence of individual cells, and compiling these values for each well to determine a total well GFP signal. The %Activity was determined from the corrected fluorescence values. A titration of the known TGF-B inhibitor SB431542 was included to monitor plate performance, while unstimulated HEPG2 (-TGF-B) control wells were used to normalize %Activity of identified inhibitors; unstimulated wells corresponded to 100%Activity (full inhibition), while stimulated cell controls (+DMSO) were used to normalize 0%Activity (no inhibition).
Concentration-response curves were fitted to the signals arising from the resulting fluorescence. The concentration-effect curves were then classified based on curve quality (r2), response magnitude and degree of measured activity, and compounds were subsequently categorized based on their curve class.
Potency is read from the fitted curve at half-maximal effect; tags tell the direction and shape of the fitted curve.

Row | Compound | Potency | activity, negative = inhibition
1 | O=c1ccc(-c2ccccc2)nn1Cc1c(F)cccc1Cl | inconclusive: 14.1 µM [inhibitor, single point] | –
2 | CCC1Oc2ccc(C)cc2N(CC(=O)N(Cc2ccc(C)o2)C2CC(C)(C)NC(C)(C)C2)C1=O (configuration not stated) | inconclusive: 35.5 µM [inhibitor, single point] | –
3 | COc1cc2[nH]c(=O)n(CCCC(=O)NC3CCCCC3)c(=O)c2cc1OC | inconclusive: 7.08 µM [inhibitor, partial curve] | –
4 | CC(=O)C1=C(O)C(=O)N(c2cc(C(C)(C)C)on2)C1c1ccc(C(C)C)cc1 (configuration not stated) | inconclusive: 3.55 µM [inhibitor, single point] | –
5 | Cc1ccc(Cl)cc1N1CCN(C(=O)c2ccc3c(Cl)c4c(nc3c2)CCCC4)CC1 | inconclusive: 2 µM [inhibitor, full curve, poor fit] | –
6 | CC1=NN(C(=O)CCCc2ccccc2)C(O)(C(F)(F)F)C1 (configuration not stated) | inconclusive: 7.94 µM [inhibitor, partial curve] | –
7 | O=C(Cn1c(=O)ccc2cc(S(=O)(=O)N3CCCC3)ccc21)Nc1ccccc1 | – | inactive: 7.28%
8 | O=C(Nc1nnc(-c2ccccn2)o1)c1cccc(Cl)c1 | – | inactive: 5.62%
9 | Cc1cc(C)c(CSc2ncc(-c3ccc([N+](=O)[O-])cc3)[nH]2)c(C)c1 | inconclusive: 35.5 µM [inhibitor, single point] | –
10 | CN(C)c1ccc(C(=S)Nc2ccccc2)cc1 | – | inactive: -1.41%
11 | CN(C)C(CNC(=O)c1ccc(Cl)c(S(=O)(=O)N2CCCCCC2)c1)c1ccccc1 (configuration not stated) | inconclusive: 14.1 µM [inhibitor, single point] | –
12 | COc1ccc(-c2cc(CNC(=O)CN(C)Cc3ccccc3)on2)cc1 | inconclusive: 35.5 µM [inhibitor, single point] | –
13 | CC1CC(C)CN(S(=O)(=O)c2ccc(NC(=O)CN3C(=O)NC(C)(c4ccccc4)C3=O)cc2)C1 (configuration not stated) | inconclusive: 15.8 µM [inhibitor, single point] | –
14 | Cc1cccc(NS(=O)(=O)c2cc([N+](=O)[O-])ccc2C)n1 | inconclusive: 3.16 µM [inhibitor, single point] | –
15 | COc1ccc(NC(=O)c2cc(-c3ccncc3)nc3ccc(Br)cc23)cc1OC | inconclusive: 22.4 µM [inhibitor, single point] | –
16 | Cc1ccc(S(=O)(=O)c2c(O)cc(C)c(NS(=O)(=O)c3ccc(Br)cc3)c2C)cc1 | inconclusive: 7.94 µM [inhibitor, partial curve, poor fit] | –

Row | Compound | Potency | activity, negative = inhibition
17 | CC1CCC(NC(=O)c2ccc(-n3cncn3)c([N+](=O)[O-])c2)CC1 (configuration not stated) | inconclusive: 20 µM [inhibitor, single point] | –
18 | CCN(CC)S(=O)(=O)c1ccc(C)c(NC(=S)N2CCN(C/C=C/c3ccccc3)CC2)c1 | inconclusive: 11.2 µM [inhibitor, partial curve, poor fit] | –
19 | CCNc1ccc(S(=O)(=O)N2CCOCC2)cc1NCC(=O)Nc1cccc(Br)c1 | inconclusive: 17.8 µM [inhibitor, single point] | –
20 | CCSc1nn(CC(=O)Nc2cccc(CC)c2)c(N)c1S(=O)(=O)c1ccccc1 | active: 11.2 µM | –
21 | O=C(/C=C/c1ccc2c(c1)OCO2)c1ccc(O)cc1O | inconclusive: 35.5 µM [inhibitor, single point] | –
22 | CCN(CC)C(=O)Oc1nnc(SC(C)C)n1-c1ccc(Cl)cc1 | – | inactive: -6.47%
23 | CSc1ccc(CN(C)C(C)C(=O)NCC2CCCCC2)cc1 (configuration not stated) | – | inactive: -20.9%
24 | NS(=O)(=O)c1ccc(NS(=O)(=O)c2ccc(C3CNC(=O)C3)cc2)cc1 (configuration not stated) | inconclusive: 11.2 µM [inhibitor, single point] | –
25 | COCCCNC(=O)C1CCN(Cc2cc3ccccc3n2Cc2ccccc2C)CC1 | inconclusive: 35.5 µM [inhibitor, single point] | –
26 | O=C(/C=C/c1cccc(OCc2ccccc2)c1)c1cccnc1 | inconclusive: 11.2 µM [inhibitor, single point] | –
27 | CCN1C(=NCCCOC(C)C)N[C@@H](CCc2ccccc2)[C@H](C(=O)NCCCOC(C)C)[C@H]1C | inconclusive: 12.6 µM [inhibitor, partial curve, poor fit] | –
28 | Cc1oc(-c2ccc(Cl)cc2)nc1CN1CCCC(C(=O)NCCc2ccc(Cl)cc2)C1 (configuration not stated) | inconclusive: 7.94 µM [inhibitor, partial curve, poor fit] | –
29 | O=C(COc1ccccc1C(=O)Nc1cccc(F)c1)Nc1ccc(Br)cc1 | – | inactive: 1.53%
30 | COC(=O)CCSc1cc(NCCCOC(C)=O)c([N+](=O)[O-])c2nonc12 | inconclusive: 14.1 µM [inhibitor, single point] | –
31 | CC(C)(C)OC(=O)N1CCC(c2c(C(=O)NCc3ccccc3)cnn2-c2cccc(F)c2)CC1 | inconclusive: 22.4 µM [inhibitor, single point] | –
32 | Cc1nnc(NC(=O)CSc2cn(Cc3ccccc3)c3ccccc23)s1 | – | inactive: 0.236%
